Several values for one entry are separate records, joined by “and”; a condition that tells them apart may be missing. Identical values can stand only once. Over roughly 2,900 compounds, “IRF Lucia reporter activity, fold change vs agonist alone” has its median near 0.9; the highest 2% begin near 2.8. The list shows a part of the results.
Assays:
RAW-Dual [1] = experiment: IRF Lucia reporter activity, fold change vs agonist alone; cytotoxicity flag (confluency mask): not cytotoxic; higher = enhanced IRF activity
Method in brief: (§1)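 Library stock was pin-tooled at 50 nL into 384-well plates of RAW-Dual macrophages (50,000 cells/well, DMEM), followed 1 h later by a PRR agonist, and the cells were kept at 37 °C, 5% CO2. Supernatant collected after 20 hours was read for IRF by QuantiLuc luminescence and for NF-κB by QuantiBlue absorbance at 620 nm. Reporter activity is fold change over agonist-alone wells, and a well counted as cytotoxic when its IncuCyte confluency was below 70% of agonist controls in both mask sets.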

RAW-Dual [2] = experiment: IRF Lucia reporter activity, fold change vs agonist alone; higher = enhanced IRF activity; details: library stock concentration (final ~1000-fold dilution): 10 mM, agonist: MPLA (TLR4) […]
Method in brief: as §1

RAW-Dual [3] = experiment: IRF Lucia reporter activity, fold change vs agonist alone; cytotoxicity flag (confluency mask): cytotoxic (confluency <70% of control); higher = enhanced IRF activity
Method in brief: as §1

[4] = agonist: 3'3'-cGAMP (STING) 10 ug/mL
[5] = cytotoxicity flag (confluency mask): not cytotoxic
[6] = cytotoxicity flag (confluency mask): cytotoxic (confluency <70% of control)

## C=CC(=O)Nc1cccc(Sc2nc(Nc3ccc(N4CCN(C)CC4)cc3)ncc2Cl)c1 (library stock concentration (final ~1000-fold dilution): 10 mM)
RAW-Dual [1]; [4]
  IRF Lucia reporter activity: 0.00681
RAW-Dual [1]; agonist: LPS (TLR4) 0.1 ug/mL
  IRF Lucia reporter activity: 0.0417

## CN1C2CCC1CC(OC(c1ccccc1)c1ccccc1)C2.CS(=O)(=O)O (stereo not given) (library stock concentration (final ~1000-fold dilution): 10 mM)
RAW-Dual [1]; [4]
  IRF Lucia reporter activity: 0.534
RAW-Dual [1]; agonist: LPS (TLR4) 0.1 ug/mL
  IRF Lucia reporter activity: 1.02

## CN1C2CCC1CC(OC(c1ccccc1)c1ccccc1)C2.CS(=O)(=O)O (stereo not given)
RAW-Dual [2]; [5]
  IRF Lucia reporter activity: 1.34

## CC(C)(O)c1ccccc1CCC(SCC1(CC(=O)O)CC1)c1cccc(C=Cc2ccc3ccc(Cl)cc3n2)c1 (stereo not given) (library stock concentration (final ~1000-fold dilution): 10 mM)
RAW-Dual [3]; [4]
  IRF Lucia reporter activity: 0.581
RAW-Dual [3]; agonist: LPS (TLR4) 0.1 ug/mL
  IRF Lucia reporter activity: 1.62

## CC(C)(O)c1ccccc1CCC(SCC1(CC(=O)O)CC1)c1cccc(C=Cc2ccc3ccc(Cl)cc3n2)c1 (stereo not given)
RAW-Dual [2]; [6]
  IRF Lucia reporter activity: 0.974

## CCOC(=O)C1=CCCCC1S(=O)(=O)Nc1ccc(F)cc1Cl (stereo not given) (library stock concentration (final ~1000-fold dilution): .1 mM)
RAW-Dual [1]; [4]
  IRF Lucia reporter activity: 0.854
RAW-Dual [1]; agonist: LPS (TLR4) 0.1 ug/mL
  IRF Lucia reporter activity: 0.0388

## Nc1ncnc2[nH]nc(Nc3ccc(F)cc3)c12
RAW-Dual [2]; [5]
  IRF Lucia reporter activity: 0.661

## Nc1ncnc2[nH]nc(Nc3ccc(F)cc3)c12 (library stock concentration (final ~1000-fold dilution): 10 mM)
RAW-Dual [1]; [4]
  IRF Lucia reporter activity: 0.171
RAW-Dual [1]; agonist: LPS (TLR4) 0.1 ug/mL
  IRF Lucia reporter activity: 0.472

## CSCC(N)C(=O)O (stereo not given) (library stock concentration (final ~1000-fold dilution): 10 mM)
RAW-Dual [1]; [4]
  IRF Lucia reporter activity: 0.989
RAW-Dual [1]; agonist: LPS (TLR4) 0.1 ug/mL
  IRF Lucia reporter activity: 1.05

## CCCCc1oc2ccc(NS(C)(=O)=O)cc2c1C(=O)c1ccc(OCCCN(CCCC)CCCC)cc1
RAW-Dual [2]; [6]
  IRF Lucia reporter activity: 0.671

## CCCCc1oc2ccc(NS(C)(=O)=O)cc2c1C(=O)c1ccc(OCCCN(CCCC)CCCC)cc1 (library stock concentration (final ~1000-fold dilution): 10 mM)
RAW-Dual [3]; [4]
  IRF Lucia reporter activity: 0.609
RAW-Dual [3]; agonist: LPS (TLR4) 0.1 ug/mL
  IRF Lucia reporter activity: 0.331

## COc1cccc2c1C(=O)c1c(O)c3c(c(O)c1C2=O)CC(O)(C(=O)CO)CC3OC1CC(N)C(O)C(C)O1 (stereo not given) (library stock concentration (final ~1000-fold dilution): 10 mM)
RAW-Dual [1]; [4]
  IRF Lucia reporter activity: 0.0119
RAW-Dual [1]; agonist: LPS (TLR4) 0.1 ug/mL
  IRF Lucia reporter activity: 0.0243

## COc1cccc2c1C(=O)c1c(O)c3c(c(O)c1C2=O)CC(O)(C(=O)CO)CC3OC1CC(N)C(O)C(C)O1 (stereo not given)
RAW-Dual [2]; [5]
  IRF Lucia reporter activity: 0.0302

## COc1cc(Nc2c(C#N)cnc3cc(OCCCN4CCN(C)CC4)c(OC)cc23)c(Cl)cc1Cl
RAW-Dual [2]; [5]
  IRF Lucia reporter activity: 0.95

## COc1cc(Nc2c(C#N)cnc3cc(OCCCN4CCN(C)CC4)c(OC)cc23)c(Cl)cc1Cl (library stock concentration (final ~1000-fold dilution): 10 mM)
RAW-Dual [1]; [4]
  IRF Lucia reporter activity: 0.817
RAW-Dual [1]; agonist: LPS (TLR4) 0.1 ug/mL
  IRF Lucia reporter activity: 1.11

## CCn1c(=O)c(-c2ccc(Cl)cc2Cl)cc2cnc(Nc3ccc(N4CCNCC4)c(F)c3)nc21 (library stock concentration (final ~1000-fold dilution): 10 mM)
RAW-Dual [3]; [4]
  IRF Lucia reporter activity: 0.0945
RAW-Dual [3]; agonist: LPS (TLR4) 0.1 ug/mL
  IRF Lucia reporter activity: 0.139

## COc1ccc(Cl)cc1NC(=O)Nc1cc(C)nc2ccccc12 (library stock concentration (final ~1000-fold dilution): 10 mM)
RAW-Dual [1]; [4]
  IRF Lucia reporter activity: 0.704
RAW-Dual [1]; agonist: LPS (TLR4) 0.1 ug/mL
  IRF Lucia reporter activity: 1.67

## COc1cc2c(cc1O)CC[n+]1cc3c(OC)c(OC)ccc3cc1-2
RAW-Dual [2]; [5]
  IRF Lucia reporter activity: 1.08

## COc1cc2c(cc1O)CC[n+]1cc3c(OC)c(OC)ccc3cc1-2 (library stock concentration (final ~1000-fold dilution): 10 mM)
RAW-Dual [1]; [4]
  IRF Lucia reporter activity: 1.06 and 1.19
RAW-Dual [1]; agonist: LPS (TLR4) 0.1 ug/mL
  IRF Lucia reporter activity: 1.28 and 1.17

## c1ccc(-c2ccc(C(c3ccccc3)n3ccnc3)cc2)cc1 (stereo not given)
RAW-Dual [2]; [5]
  IRF Lucia reporter activity: 0.879

## c1ccc(-c2ccc(C(c3ccccc3)n3ccnc3)cc2)cc1 (stereo not given) (library stock concentration (final ~1000-fold dilution): 10 mM)
RAW-Dual [1]; [4]
  IRF Lucia reporter activity: 0.958
RAW-Dual [1]; agonist: LPS (TLR4) 0.1 ug/mL
  IRF Lucia reporter activity: 1.07

## O=c1[nH]c2ccccc2n1CCN1CCN(c2cccc(C(F)(F)F)c2)CC1 (library stock concentration (final ~1000-fold dilution): 10 mM)
RAW-Dual [1]; [4]
  IRF Lucia reporter activity: 1.23
RAW-Dual [1]; agonist: LPS (TLR4) 0.1 ug/mL
  IRF Lucia reporter activity: 1.45

## O=c1[nH]c2ccccc2n1CCN1CCN(c2cccc(C(F)(F)F)c2)CC1
RAW-Dual [2]; [5]
  IRF Lucia reporter activity: 1.44

## COc1cc(/C=C/C(=O)/C=C(O)/C=C/c2ccc(O)c(OC)c2)ccc1O
RAW-Dual [2]; [5]
  IRF Lucia reporter activity: 0.0828

## COc1cc(/C=C/C(=O)/C=C(O)/C=C/c2ccc(O)c(OC)c2)ccc1O (library stock concentration (final ~1000-fold dilution): 10 mM)
RAW-Dual [1]; [4]
  IRF Lucia reporter activity: 0.0353
RAW-Dual [1]; agonist: LPS (TLR4) 0.1 ug/mL
  IRF Lucia reporter activity: 0.212
